Positions count from the first letter of the chain named. This is one part of the list.

The labels stand for the following.
B1: GGCAGUG (DNA:RNA)
RNA: GGGAGACCGGAAUUCAGAUUGUCCGGCAGUGUUAAAUCCCGUCGUAGCCACCA
DNA 1: CAATCTGAATTCCGGTCTCCC
DNA 2: TGGTGGCTACGACGGGATT
B2: GGGAAAU (DNA:RNA)
RNA: B1 RNA with C27G, G29A, U30A, G31U
DNA 1: CAATCTGAATTCCGGTCTCCC
DNA 2: TGGTGGCTACGACGGGATT
B3: AGUGAUG (DNA:RNA)
RNA: B1 RNA with G25A, C27U, A28G, G29A
DNA 1: CAATCTGAATTCCGGTCTCCC
DNA 2: TGGTGGCTACGACGGGATT
B4: CGUCGAC (DNA:RNA)
RNA: B1 RNA with G25C, C27U, A28C, U30A, G31C
DNA 1: CAATCTGAATTCCGGTCTCCC
DNA 2: TGGTGGCTACGACGGGATT
B5: AUGAUCC (DNA:RNA)
RNA: B1 RNA with G25A, G26U, C27G, G29U, U30C, G31C
DNA 1: CAATCTGAATTCCGGTCTCCC
DNA 2: TGGTGGCTACGACGGGATT
B6: CACAAAG (DNA:RNA)
RNA: B1 RNA with G25C, G26A, G29A, U30A
DNA 1: CAATCTGAATTCCGGTCTCCC
DNA 2: TGGTGGCTACGACGGGATT
B7: UGGUGUA (DNA:RNA)
RNA: B1 RNA with G25U, C27G, A28U, G31A
DNA 1: CAATCTGAATTCCGGTCTCCC
DNA 2: TGGTGGCTACGACGGGATT
B8: GCAGAGG (DNA:RNA)
RNA: B1 RNA with G26C, C27A, A28G, G29A, U30G
DNA 1: CAATCTGAATTCCGGTCTCCC
DNA 2: TGGTGGCTACGACGGGATT
B9: AAUUGUG (DNA:RNA)
RNA: B1 RNA with G25A, G26A, C27U, A28U
DNA 1: CAATCTGAATTCCGGTCTCCC
DNA 2: TGGTGGCTACGACGGGATT
B10: UCGCUAC (DNA:RNA)
RNA: GGGAGACCGGAAUUCAGAUUGUCCUCGCUACUUAAAUCCCGUCGUAGCCACCA
DNA 1: CAATCTGAATTCCGGTCTCCC
DNA 2: TGGTGGCTACGACGGGATT
B11: UAGCAAA (DNA:RNA)
RNA: B10 RNA with C26A, U29A, C31A
DNA 1: CAATCTGAATTCCGGTCTCCC
DNA 2: TGGTGGCTACGACGGGATT
B12: UACAAAA (DNA:RNA)
RNA: B1 RNA with G25U, G26A, G29A, U30A, G31A
DNA 1: CAATCTGAATTCCGGTCTCCC
DNA 2: TGGTGGCTACGACGGGATT
B13: CAGGGUU (DNA:RNA)
RNA: B1 RNA with G25C, G26A, C27G, A28G, G31U
DNA 1: CAATCTGAATTCCGGTCTCCC
DNA 2: TGGTGGCTACGACGGGATT
B14: CUGGAGA (DNA:RNA)
RNA: B10 RNA with U25C, C26U, C28G, U29A, A30G, C31A
DNA 1: CAATCTGAATTCCGGTCTCCC
DNA 2: TGGTGGCTACGACGGGATT
B15: UGAUGGG (DNA:RNA)
RNA: B1 RNA with G25U, C27A, A28U, U30G
DNA 1: CAATCTGAATTCCGGTCTCCC
DNA 2: TGGTGGCTACGACGGGATT
B16: UGCCACA (DNA:RNA)
RNA: B1 RNA with G25U, A28C, G29A, U30C, G31A
DNA 1: CAATCTGAATTCCGGTCTCCC
DNA 2: TGGTGGCTACGACGGGATT
B17: GCUAACG (DNA:RNA)
RNA: B1 RNA with G26C, C27U, G29A, U30C
DNA 1: CAATCTGAATTCCGGTCTCCC
DNA 2: TGGTGGCTACGACGGGATT
B18: GACAAAC (DNA:RNA)
RNA: B1 RNA with G26A, G29A, U30A, G31C
DNA 1: CAATCTGAATTCCGGTCTCCC
DNA 2: TGGTGGCTACGACGGGATT
B19: GCGGAGG (DNA:RNA)
RNA: B1 RNA with G26C, C27G, A28G, G29A, U30G
DNA 1: CAATCTGAATTCCGGTCTCCC
DNA 2: TGGTGGCTACGACGGGATT
B20: GGCGUUG (DNA:RNA)
RNA: B1 RNA with A28G, G29U
DNA 1: CAATCTGAATTCCGGTCTCCC
DNA 2: TGGTGGCTACGACGGGATT
B21: UACUGGC (DNA:RNA)
RNA: B1 RNA with G25U, G26A, A28U, U30G, G31C
DNA 1: CAATCTGAATTCCGGTCTCCC
DNA 2: TGGTGGCTACGACGGGATT
B22: UAGCAUA (DNA:RNA)
RNA: B10 RNA with C26A, U29A, A30U, C31A
DNA 1: CAATCTGAATTCCGGTCTCCC
DNA 2: TGGTGGCTACGACGGGATT
B23: CCCAUCG (DNA:RNA)
RNA: B1 RNA with G25C, G26C, G29U, U30C
DNA 1: CAATCTGAATTCCGGTCTCCC
DNA 2: TGGTGGCTACGACGGGATT
B24: UAUCAUU (DNA:RNA)
RNA: B10 RNA with C26A, G27U, U29A, A30U, C31U
DNA 1: CAATCTGAATTCCGGTCTCCC
DNA 2: TGGTGGCTACGACGGGATT
B25: UCCAUGG (DNA:RNA)
RNA: B1 RNA with G25U, G26C, G29U, U30G
DNA 1: CAATCTGAATTCCGGTCTCCC
DNA 2: TGGTGGCTACGACGGGATT
B26: UUGCCGA (DNA:RNA)
RNA: B10 RNA with C26U, U29C, A30G, C31A
DNA 1: CAATCTGAATTCCGGTCTCCC
DNA 2: TGGTGGCTACGACGGGATT
B27: GACUCGC (DNA:RNA)
RNA: B1 RNA with G26A, A28U, G29C, U30G, G31C
DNA 1: CAATCTGAATTCCGGTCTCCC
DNA 2: TGGTGGCTACGACGGGATT
B28: AGCGACA (DNA:RNA)
RNA: B1 RNA with G25A, A28G, G29A, U30C, G31A
DNA 1: CAATCTGAATTCCGGTCTCCC
DNA 2: TGGTGGCTACGACGGGATT
B29: UAGAUAG (DNA:RNA)
RNA: B10 RNA with C26A, C28A, C31G
DNA 1: CAATCTGAATTCCGGTCTCCC
DNA 2: TGGTGGCTACGACGGGATT
B30: ACAGAUC (DNA:RNA)
RNA: B10 RNA with U25A, G27A, C28G, U29A, A30U
DNA 1: CAATCTGAATTCCGGTCTCCC
DNA 2: TGGTGGCTACGACGGGATT
B31: UUCACCC (DNA:RNA)
RNA: B1 RNA with G25U, G26U, G29C, U30C, G31C
DNA 1: CAATCTGAATTCCGGTCTCCC
DNA 2: TGGTGGCTACGACGGGATT

The test deals with T1, RBFOX1 RRM (Homo sapiens, UniProt Q9NWB1 109-208).
T1 sequence: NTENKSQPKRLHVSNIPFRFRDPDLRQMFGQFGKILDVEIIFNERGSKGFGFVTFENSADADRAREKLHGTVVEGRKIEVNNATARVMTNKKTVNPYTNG
Description: EMSA; HiTS-Eq, 1 nM pool, 10 min; buffer printed only for the single-RNA assays: 10 mM Tris pH 7.5, 150 mM NaCl, 3.4 mM EDTA, 0.001% NP-40, 30 C. To be noted: tags: His6 N-terminal (pET28a); label: 5' 32P. In outline: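 Purified wild-type or mutant RbFox RRM at increasing concentrations was equilibrated with 1 nM of 5′-radiolabelled RNA carrying 7 randomized nucleotides for 10 min in 50 µL. Unbound RNA was separated by 8% native PAGE and sequenced. Relative association constants came from read-count changes of each RNA species compared with the control reaction, normalised to the cognate motif.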
On the technique in general: Mobility shift assays separate free from complexed probe on a gel.
With B1, the binding signal was 0.0112 KA relative to UGCAUGU.
The value for B2 was 0.0288 KA relative to UGCAUGU; that for B3 was 0.0136 KA relative to UGCAUGU; that for B4 was 0.00831 KA relative to UGCAUGU.
For B5, the binding signal was 0.00352 KA relative to UGCAUGU.
In the case of B6, the binding signal is 0.00192 KA relative to UGCAUGU.
Consider B7, for which the binding signal was 0.0174 KA relative to UGCAUGU.
B8: the binding signal was 0.0159 KA relative to UGCAUGU.
The same measure for B9: 0.014 KA relative to UGCAUGU.
The same measure for B10: 0.00987 KA relative to UGCAUGU; for B11: 0.00538 KA relative to UGCAUGU.
Regarding B12, the binding signal is 0.000785 KA relative to UGCAUGU.
The same measure for B13: 0.0194 KA relative to UGCAUGU; for B14: 0.0188 KA relative to UGCAUGU.
Consider B15, for which the binding signal is 0.00907 KA relative to UGCAUGU.
B16: the binding signal is 0.00354 KA relative to UGCAUGU.
The same measure for B17: 0.0135 KA relative to UGCAUGU; for B18: 0.00233 KA relative to UGCAUGU; for B19: 0.0217 KA relative to UGCAUGU.
For the molecule B20, the binding signal was 0.0253 KA relative to UGCAUGU.
As to B21, the binding signal is 0.0121 KA relative to UGCAUGU.
For B22, the binding signal is 0.011 KA relative to UGCAUGU.
The same measure for B23: 0.00787 KA relative to UGCAUGU; for B24: 0.00496 KA relative to UGCAUGU; for B25: 0.00753 KA relative to UGCAUGU.
The value for B26 was 0.0237 KA relative to UGCAUGU; that for B27 was 0.0153 KA relative to UGCAUGU; that for B28 was 0.00503 KA relative to UGCAUGU.
The same measure for B29: 0.0131 KA relative to UGCAUGU; for B30: 0.0041 KA relative to UGCAUGU; for B31: 0.00269 KA relative to UGCAUGU.

For the origin of these results see paper PMC9911399, “Two distinct binding modes provide the RNA-binding protein RbFox with extraordinary sequence specificity”.
